# Screen size: about 52,000 compounds; about 4,300 (8.3%) were called active. No stated cut-off is given here; in the data, active means survival mostly below about 52% (no sharp cut-off); inactive means mostly above about 56%. Some of the results follow.
# Tested on: DeltatarO mutant
# Test: S. aureus survival, RN4220 and DeltatarO strains – OD600, teichoic acid synthesis inhibitors, primary screen (AID 463173)
# Settings: S. aureus RN4220 wild type/DeltatarO growth, OD600, 18 h, active compounds read low, screened at 18.75 µg/mL (by protocol)
row,Structure (SMILES),survival
1,Cc1cccc(-n2c(C)cc(C(=O)C(=O)Nc3nncs3)c2C)c1,inactive: 85%
2,COc1ccccc1NC(=O)c1cc2c(=O)n(Cc3cccs3)ccc2nc1C,inactive: 95%
3,Cc1ccc(C(C)C)c(OCC(=O)Nc2cc(-c3nc4ccccc4[nH]3)ccc2C)c1,inactive: 71%
4,O=C(Nc1ccc(S(=O)(=O)N2CCCCC2)cc1)C(F)(F)F,active: 58%
5,O=C(Nc1ccccc1F)c1cnc(N2CCCCC2)c2ccccc12,inactive: 99%
6,Cc1oc(-c2ccccc2F)nc1Cn1c(SCc2cccc(C(F)(F)F)c2)nc2ccncc21,inactive: 60%
7,O=C1c2ccccc2NC2(CCCCC2)N1Cc1ccco1,inactive: 111%
8,COc1ccc(OC)c(CNC(=O)CCCn2c(=O)c3cccn3c3cccnc32)c1,inactive: 97%
9,CCOc1ccccc1NC(=O)Cn1c(=O)n(Cc2ccc(OC)cc2)c(=O)c2oc3ccccc3c21,inactive: 63%
10,Cc1cc(C)cc(NC(=O)CSc2c(C(C)C)cnc3c2c(=O)n(C)c(=O)n3C)c1,inactive: 67%
11,Cc1cc(C)cc(Nc2cc(C(=O)NC3CCCCC3)c3ccccc3n2)c1,inactive: 116%
12,CCCCc1ccc(C(=O)Nc2ccc3nc(N4CCN(CC)CC4)cc(C)c3c2)cc1,active: 36%
13,Cc1ccc(Nc2ncnc3ccccc23)cc1,inactive: 109%
14,CCOC(=O)c1ccccc1NC(=O)CSc1nnc(CC)n2c1cc1occc12,inactive: 63%
15,COc1ccc(C)cc1NC(=O)c1cc(S(=O)(=O)N2CCC(C)CC2)ccc1F,inactive: 98%
16,Fc1ccc(-c2cc3ncc4c(n3n2)-c2cc(Cl)ccc2OC4)cc1,inactive: 65%
17,CCOC(=O)c1cc(C)n(CC2CCC(C(=O)Nc3ccc(OC)cc3)CC2)c1C (centres undefined),inactive: 105%
18,COc1ccc(CCNc2ncnc3c2c(-c2ccccc2)cn3-c2ccc(Cl)cc2)cc1OC,inactive: 97%
19,CCOC(=O)CSc1nc2ccc(NC(=O)c3ccc(Cl)cc3)cc2s1,inactive: 83%
20,COC(=O)c1ccc(NC(=O)C2CCN(c3ncnc4c3nc3n4CCCCC3)CC2)cc1,inactive: 84%
21,COc1cc(CN(C(=O)c2ccc(OC(C)C)cc2)c2ccccn2)cc(OC)c1OC,inactive: 102%
22,Cc1ccc(NC(=O)CN2C(=O)C(c3ccc(F)cc3)=NC23CCCCCC3)c(C)c1,inactive: 85%

row,Structure (SMILES),survival
1,CCCCOc1ccc(C2C(=O)N(C3CCCCC3)CC(=O)N2C2CCCCC2)cc1 (centres undefined),inactive: 94%
2,Cc1ccc(NC(=O)C2CCN(S(=O)(=O)c3cccc4nsnc34)CC2)cc1,inactive: 94%
3,CCn1cc(C(=O)OCC(=O)Nc2cc(Cl)ccc2C)c(=O)c2ccc(C)nc21,inactive: 74%
4,O=S(=O)(c1ccc(S(=O)(=O)N2CCC3(CC2)OCCO3)cc1)N1CCCC1,inactive: 91%
5,CC1CCN(S(=O)(=O)c2ccc3nc(NCc4ccc(N(C)C)cc4)ccc3c2)CC1,inactive: 65%
6,CCc1cccc(NC(=O)Cn2c(=O)n(CCCCCC(=O)NCc3ccc(F)cc3)c(=O)c3sccc32)c1,inactive: 63%
7,Nc1nonc1-c1nc2ccccc2n1CCn1c(-c2nonc2N)nc2ccccc21,inactive: 82%
8,CCN(Cc1ccccc1)C(c1ccccn1)c1nnnn1C1CCCCC1 (centres undefined),inactive: 96%
9,CCOC(=O)N1CCc2c(sc3c2c(=O)n(-c2ccc(CC)cc2)c(=O)n3Cc2cccc(Cl)c2)C1,inactive: 70%
10,Cc1ccc(C)c(N2CCN(C(=O)C3CCC(CNS(=O)(=O)c4cccs4)CC3)CC2)c1 (centres undefined),inactive: 78%
11,CCC1CN(C(=O)N2CCC(C(=O)NCCc3ccc(OC)c(OC)c3)CC2)c2ccccc2O1 (centres undefined),inactive: 74%
12,Cc1ccc(CNC(=O)CSc2c(C)cnc3c2c(=O)n(C)c(=O)n3C)cc1,inactive: 83%
13,CC1=C(c2ccc(C)c(C)c2)S(=O)(=O)N(Cc2ccc(C(=O)NCc3ccccc3F)cc2)C1=O,inactive: 75%
14,COc1ccc(-c2cc(C(F)(F)F)n3nc(C)c(-c4ccccc4)c3n2)cc1OC,active: 69%
15,O=C(CCc1cn(Cc2ccc(F)cc2)c2ccccc12)NC1CCCCC1,inactive: 79%
16,COc1ccc(C2C=C(c3ccccc3)Nc3nc(NC(C)=O)nn32)cc1 (centres undefined),inactive: 53%
17,CCn1nc(C)c2c(-c3ccccc3)cc(=O)n(C(C)C(=O)Nc3ccc(OC)c(OC)c3)c21 (centres undefined),inactive: 72%
18,Cc1cccc(NC(=O)Nc2cccs2)c1C,inactive: 93%
19,CCOC(=O)c1ccccc1NC(=O)CN(c1ccccc1)S(=O)(=O)c1ccc(OCC)cc1,inactive: 72%
20,CCCCCCc1c(C)c2c(cc(C)c3c(C)coc32)oc1=O,inactive: 91%
21,COc1ccc(-c2cn3c(c2C)-c2ccc(C)n2CC3)cc1,inactive: 91%
22,Cc1ccc(C)c(NC(=O)Cn2ncc3c(C)n(Cc4ccc(F)cc4)c(C)c3c2=O)c1,inactive: 71%

# Source: PubChem BioAssay AID463173 (ICCB-Longwood Screening Facility, Harvard Medical School, 2010)
